Data published in a collection of fitness landscapes (doi:10.1038/s41467-024-54723-y).
In all, about 18,000 sequences were measured (“TetR repression strength (sort-seq, GFP reporter)”: median about 0.23, highest 2% from about 0.68 on). Some of the results follow.

biological target: TetR (class B, Tn10) (UniProt P04483); assay: TetR repression strength (sort-seq, GFP reporter) (relative to tetO2 = 1); higher = stronger repression; conditions: E. coli
How it was run: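 E. coli SIG10-MAX carried a low-copy plasmid library with eight randomized operator positions between a constitutive promoter and sfGFP, with TetR constitutively expressed. Cells grew 5 h at 37 °C in LB with 50 µg/mL chloramphenicol, then 10^6 cells were FACS-sorted into 13 fluorescence bins, each Illumina-sequenced. Repression strength is the top bin index plus one minus the read-weighted mean bin, divided by the wild-type operator value. Three independent transformations; variants with ≥30 reads in all replicates and CV ≤0.5 were averaged.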

Chain of UniProt P04483 (P04483 whole entry): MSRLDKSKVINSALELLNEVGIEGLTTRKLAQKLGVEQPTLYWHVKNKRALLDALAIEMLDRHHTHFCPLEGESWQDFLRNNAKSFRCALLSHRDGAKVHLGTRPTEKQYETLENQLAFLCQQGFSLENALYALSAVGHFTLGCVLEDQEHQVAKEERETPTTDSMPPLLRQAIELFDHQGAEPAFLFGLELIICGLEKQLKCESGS

Sequence | TetR repression strength
TCCCCCTAAGTGCGTGAGA | 0.155
TCCCGTTAAGTTAAGGAGA | 0.323
TCCCTGTCAGTATAGGAGA | 0.0605
TCCCTAATAGTAGGGGAGA | 0.248
TCCCTTGGAGTGGGGGAGA | 0.211
TCCCTAATAGTTCGTGAGA | 0.207
TCCCGTTTAGTGCTCGAGA | 0.229
TCCCATGTAGTGTAGGAGA | 0.315
TCCCGTAGAGTTAGAGAGA | 0.181
TCCCATGGAGTCCGTGAGA | 0.182
TCCCGGCTAGTGGATGAGA | 0.227
TCCCTCCTAGTCAGGGAGA | 0.104
TCCCACGGAGTGAAGGAGA | 0.291
TCCCATTCAGTGTCGGAGA | 0.125
TCCCTTTAAGTTCATGAGA | 0.348
TCCCAATCAGTGCGCGAGA | 0.289
TCCCGTGGAGTGAATGAGA | 0.475
TCCCATGTAGTAGCAGAGA | 0
TCCCACCGAGTTCTGGAGA | 0.253
TCCCAAGGAGTGCGAGAGA | 0.0159
TCCCTACGAGTTGACGAGA | 0.217
TCCCGCCCAGTCGAGGAGA | 0.196
TCCCTTACAGTTATTGAGA | 0.159
TCCCCAAGAGTCGGTGAGA | 0.171
TCCCGCGCAGTGTGGGAGA | 0.144
TCCCATTGAGTGACGGAGA | 0.501

Sequence | TetR repression strength
TCCCACGTAGTCTTAGAGA | 0.334
TCCCTGGGAGTTGCAGAGA | 0.393
TCCCTTTAAGTCGTTGAGA | 0.234
TCCCTGTAAGTCATAGAGA | 0.392
TCCCTCACAGTAGGGGAGA | 0.0553
TCCCCTGCAGTGGCAGAGA | 0.352
TCCCATAAAGTCGAGGAGA | 0.277
TCCCTGACAGTGAATGAGA | 0.175
TCCCGGCCAGTGATTGAGA | 0.455
TCCCTTCTAGTTGTGGAGA | 0.484
TCCCGCGTAGTCTGGGAGA | 0.359
TCCCCGGGAGTTGCCGAGA | 0.332
TCCCTGGGAGTTTTGGAGA | 0.508
TCCCGGATAGTGCGCGAGA | 0.129
TCCCACCGAGTTAACGAGA | 0.559
TCCCATATAGTAGGCGAGA | 0.204
TCCCTGTAAGTGGGGGAGA | 0.17
TCCCGGCAAGTTGGCGAGA | 0.0984
TCCCGATTAGTAGCGGAGA | 0.0756
TCCCCGGTAGTGATGGAGA | 0.189
TCCCTTTTAGTTATAGAGA | 0.231
TCCCGAGTAGTCGGGGAGA | 0.311
TCCCACGAAGTTGCAGAGA | 0.207
TCCCAGGGAGTGGGGGAGA | 0.288
TCCCCTGAAGTGCCAGAGA | 0.546
TCCCCAGCAGTCATCGAGA | 0.127

Sequence | TetR repression strength
TCCCCTTAAGTTTAGGAGA | 0.151
TCCCGAGGAGTGTCGGAGA | 0.246
TCCCCAAGAGTATTGGAGA | 0.218
TCCCTTACAGTAAGGGAGA | 0.208
TCCCGTGGAGTGTGTGAGA | 0.215
TCCCCTAAAGTTGTCGAGA | 0.518
TCCCCTCGAGTTGCGGAGA | 0.144
TCCCGAAAAGTAAAGGAGA | 0.348
TCCCTGTTAGTTGCGGAGA | 0.312
TCCCGAGTAGTACGAGAGA | 0.309
TCCCCTGAAGTGATAGAGA | 0.484
TCCCAGTGAGTCGCAGAGA | 0.0941
TCCCGTCGAGTGTAGGAGA | 0.321
TCCCGGGGAGTTCACGAGA | 0.182
TCCCTCGGAGTGCGGGAGA | 0.249
TCCCGGGTAGTGCTGGAGA | 0.152
TCCCGACGAGTGAGCGAGA | 0.186
TCCCTTAAAGTTTGAGAGA | 0.0942
TCCCCACGAGTGACCGAGA | 0.104
TCCCGTTGAGTGGGGGAGA | 0.195
TCCCGGAAAGTCAAGGAGA | 0.547
TCCCACTAAGTGGCGGAGA | 0.162
TCCCGGGCAGTAATGGAGA | 0.37
TCCCGCAGAGTTTCGGAGA | 0.148
TCCCCCCCAGTACGCGAGA | 0.0399
TCCCGCCTAGTTAGAGAGA | 0.309

Sequence | TetR repression strength
TCCCGCGTAGTGGGAGAGA | 0.178
TCCCTGGTAGTGGTCGAGA | 0.174
TCCCAACAAGTAGAGGAGA | 0.206
TCCCGTTGAGTGGGAGAGA | 0.25
TCCCTGAGAGTCGGCGAGA | 0.192
TCCCATGCAGTGATGGAGA | 0.191
TCCCCTATAGTACTTGAGA | 0.255
TCCCCGCGAGTGCACGAGA | 0.407
TCCCGGTTAGTGCCTGAGA | 0.242
TCCCAGCCAGTCGGGGAGA | 0.184
TCCCATTAAGTTCAGGAGA | 0.533
TCCCGTTGAGTTACGGAGA | 0.166
TCCCCGGCAGTAAGCGAGA | 0.399
TCCCGCGGAGTCTGTGAGA | 0.32
TCCCAATCAGTGAGTGAGA | 0.701
TCCCCGAGAGTAGGGGAGA | 0.202
TCCCAGGGAGTAGTAGAGA | 0.344
TCCCTAAAAGTGTAGGAGA | 0.131
TCCCTTAAAGTGTAGGAGA | 0.0265
TCCCATTAAGTAGTTGAGA | 0.165
TCCCGGGGAGTCAATGAGA | 0.112
TCCCGGGTAGTCAAAGAGA | 0.31
TCCCTCGAAGTAGAAGAGA | 0.297
TCCCATCTAGTATCGGAGA | 0.908
TCCCCTCTAGTGCGAGAGA | 0.481
TCCCGGACAGTCGGTGAGA | 0.148

Sequence | TetR repression strength
TCCCACGTAGTTTACGAGA | 0.203
TCCCAATCAGTACATGAGA | 0.281
TCCCGACAAGTTGCCGAGA | 0.258
TCCCGGAGAGTGCCTGAGA | 0.184
TCCCTGCGAGTGCCAGAGA | 0.218
TCCCTTCCAGTGGCGGAGA | 0.341
TCCCATCAAGTGATCGAGA | 0.231
TCCCTGCGAGTTCGTGAGA | 0.297
TCCCCGCAAGTCCCGGAGA | 0.123
TCCCTAGTAGTGGCTGAGA | 0.905
TCCCGTCAAGTAAACGAGA | 0.227
TCCCGGCCAGTATCGGAGA | 0.149
TCCCGTGCAGTGGTGGAGA | 0.16
TCCCCTTTAGTGCCAGAGA | 0.583
TCCCGATTAGTGTAGGAGA | 0.213
TCCCCCGTAGTTGCCGAGA | 0.311
TCCCATGAAGTTGTCGAGA | 0.0957
TCCCGGACAGTGCGTGAGA | 0.116
TCCCTTCAAGTGCTCGAGA | 0.24
TCCCTCCGAGTGCATGAGA | 0.364
TCCCGGACAGTATGGGAGA | 0.18
TCCCTGGCAGTAGTCGAGA | 0.0432
TCCCCTCGAGTAACAGAGA | 0.415
TCCCTTATAGTTTGTGAGA | 0.319
TCCCAGTCAGTGACTGAGA | 0.453
TCCCATCCAGTTTGGGAGA | 0.191

Sequence | TetR repression strength
TCCCTCAAAGTTTATGAGA | 0.293
TCCCGTGCAGTAAAGGAGA | 0.407
TCCCCAGGAGTGTTGGAGA | 0.129
TCCCGCTAAGTGGCTGAGA | 0.146
TCCCCTTAAGTGGGGGAGA | 0.302
TCCCACGAAGTGCCTGAGA | 0.486
TCCCGGAGAGTGGACGAGA | 0.203
TCCCTAAAAGTACGAGAGA | 0.207
TCCCTGAGAGTTATTGAGA | 0.456
TCCCTCATAGTGCTCGAGA | 0.581
TCCCTCAGAGTGGACGAGA | 0.314
TCCCAGTTAGTTTGTGAGA | 0.072
TCCCAGGCAGTGACGGAGA | 0.294
TCCCCGGAAGTCTCGGAGA | 0.384
TCCCCTGGAGTGGGCGAGA | 0.15
TCCCCTAGAGTCGCGGAGA | 0.358
TCCCTTCTAGTTTAAGAGA | 0.305
TCCCACTTAGTACTGGAGA | 0.289
TCCCCCAGAGTCACGGAGA | 0.205
TCCCGTACAGTGGGTGAGA | 0.241
TCCCTCCAAGTGATCGAGA | 0.306
TCCCGTTAAGTATAGGAGA | 0.0676
TCCCTTATAGTGCATGAGA | 0
TCCCGTCGAGTAGATGAGA | 0.14
TCCCTCCGAGTTACGGAGA | 0.226
TCCCGGTCAGTGTAGGAGA | 0.176

Sequence | TetR repression strength
TCCCTTTAAGTCAGAGAGA | 0.307
TCCCTGGAAGTGGGTGAGA | 0.205
TCCCTGTGAGTTTTGGAGA | 0.407
TCCCGGTAAGTGGGTGAGA | 0.141
TCCCGATTAGTCTTTGAGA | 0.0932
TCCCAGGAAGTACGTGAGA | 0.0829
TCCCATACAGTGGTTGAGA | 0.202
TCCCACTGAGTCGGAGAGA | 0.24
TCCCAGTGAGTCCATGAGA | 0.163
TCCCTGACAGTGCAAGAGA | 0.393
TCCCCGCGAGTGTTGGAGA | 0.248
TCCCGCACAGTAGTAGAGA | 0.194
TCCCCAAGAGTGCTAGAGA | 0.282
TCCCTAACAGTGTTCGAGA | 0.305
TCCCGGCTAGTGCTAGAGA | 0.206
TCCCCAGTAGTTCGAGAGA | 0.32
TCCCCATGAGTTGAAGAGA | 0.435
TCCCGGTTAGTAATTGAGA | 0.345
TCCCCAAAAGTAAATGAGA | 0.19
TCCCATGAAGTTAAAGAGA | 0.0451
TCCCTGCTAGTTGGCGAGA | 0.13
TCCCACGAAGTCAACGAGA | 0.422
TCCCAATAAGTGGTTGAGA | 0.197
TCCCGTTAAGTATTGGAGA | 0.254
TCCCGCGCAGTGGCAGAGA | 0.342
TCCCTAGAAGTGGCTGAGA | 0.146

Sequence | TetR repression strength
TCCCCTTCAGTCTGAGAGA | 0.419
TCCCAAGAAGTCGTGGAGA | 0.174
TCCCTTGTAGTGATTGAGA | 0.266
TCCCCACTAGTAAATGAGA | 0.726
TCCCCCCGAGTCGCGGAGA | 0.237
TCCCGAGGAGTGGGGGAGA | 0.287
TCCCTATCAGTCGGTGAGA | 0.539
TCCCTCTAAGTCTGCGAGA | 0.276
TCCCATTTAGTACAGGAGA | 0.202
TCCCCATTAGTGTGGGAGA | 0.217
TCCCTTATAGTTGCCGAGA | 0.429
TCCCCATCAGTTAATGAGA | 0.419
TCCCTTGTAGTGGCAGAGA | 0.0403
TCCCTCTAAGTTCTCGAGA | 0.341
TCCCGGACAGTAGAGGAGA | 0.104
TCCCTGTTAGTGATTGAGA | 0.441
TCCCCTTTAGTCGGAGAGA | 0.163
TCCCGCTTAGTGAAGGAGA | 0.345
TCCCTCGGAGTTGGAGAGA | 0.318
TCCCACAAAGTTAGCGAGA | 0.335
TCCCGTTGAGTCACCGAGA | 0.397
TCCCGGCAAGTAGGCGAGA | 0.365
